Results on 88 sequences are retold here after article PMC5515408.

The other results are listed elsewhere or left out. At the low end of the ranking the order means little.

For this assay, the target named is MAX:MAX (p21) (UniProt P61244-2). Put plainly: protein-binding microarray (anti-MAX antibody). The settings on record: PBM: 15 mM Tris-HCl pH 7.5, 100 mM KCl, 0.075% NP40, 7.5 mM beta-mercaptoethanol, 375 ng/ul BSA, 8 ng/ul poly(dA-dT):(dA-dT), 550 ng complex, 60 min, room …; high values mean tight binding; double strand, one strand shown; sequences stand for … in CCGGC…TTAATAGCTAAGATTACTATATCGACG
With TGAAGGGTAGTA, the binding signal (log2 normalized fluorescence) was -0.817. In the case of TGAACACTAGTA, the binding signal (log2 normalized fluorescence) was -0.147.

As for TGACGAGTCGTA, the binding signal (log2 normalized fluorescence) was -0.648. For the sequence TGATATGTAGTA, the binding signal (log2 normalized fluorescence) is -0.885. As to TGACCAACCGTA, the binding signal (log2 normalized fluorescence) is -0.232.

Turning to TGATTGGTTGTA, the binding signal (log2 normalized fluorescence) is -0.814. For TGAGCTTGAGTA, the binding signal (log2 normalized fluorescence) was -0.795. TGACACGTGGGT: the binding signal (log2 normalized fluorescence) worked out at 3.39. In the case of TGAGCAGTGGTA it was -0.514. TGATATTTAGTA: the binding signal (log2 normalized fluorescence) is -1.26. Sequence TGACACGGTATA returned a binding signal (log2 normalized fluorescence) of 1.17. Regarding TGACGTCTCGTA, the binding signal (log2 normalized fluorescence) is -0.639. The sequence TGACAGGTGCTG showed a binding signal (log2 normalized fluorescence) of 2.38. As to CAAATGAGAGCC, the binding signal (log2 normalized fluorescence) was -0.0499.

With AGACACGCAGTA, the binding signal (log2 normalized fluorescence) is 2.67. On to TGAATCCTAGTA, for which the binding signal (log2 normalized fluorescence) was -0.835.

TGAACTAAAGTA: the binding signal (log2 normalized fluorescence) was -0.827.

Consider AGATTTCGGACA, for which the binding signal (log2 normalized fluorescence) was -0.526. As for TGAAGCCACGTA, the binding signal (log2 normalized fluorescence) amounted to 0.619. TGACACCTGGAA returned a binding signal (log2 normalized fluorescence) of 1.65. In the case of TGAGTTGGAGTA it was -1.05; in that of TGAAAGCTTGTA, -0.547.

In the case of TGAGGATAGGTA, the binding signal (log2 normalized fluorescence) is -0.724. For TGAATTCCAGTA, the binding signal (log2 normalized fluorescence) was -0.837. In the case of TGAAGCTTTGTA it was -0.703. With TGAAGGCAGGTA, the binding signal (log2 normalized fluorescence) is -0.449.

TGAAACGCAGTA: the binding signal (log2 normalized fluorescence) was -0.19. In the case of TGATCTGCGGTA, the binding signal (log2 normalized fluorescence) was -0.623. For the sequence TCACACGTGGTA, the binding signal (log2 normalized fluorescence) is 3.33. As to TGAGACGTGATA, the binding signal (log2 normalized fluorescence) was 0.863. Consider TGAGTTCCGGTA, for which the binding signal (log2 normalized fluorescence) is -1.06. Take TGAGCTAACGTA: the binding signal (log2 normalized fluorescence) is -0.965. In the case of GGACTCGTGGTA it was 3.3; in that of TGACCCCAAGTA, -0.188; in that of TGAAGCGTGTTA, 2.97.

With TGACACTTCGTC, the binding signal (log2 normalized fluorescence) was -0.311.

TGATGGGTGGTA: the binding signal (log2 normalized fluorescence) was found to be 0.522. In the case of TGATAGAGTGTA it was -0.76; in that of TGATTAAGTGTA, -0.71; in that of TGAACCTCGGTA, -0.351.

TGATGTGGTGTA: the binding signal (log2 normalized fluorescence) was 0.281. With TGACACAATGTA the figure was 0.834; with TGATACGTGTTG, 0.944; with TGACGGCTGGTA, -0.329. In the case of TGAGGAAGGGTA it was -0.319; in that of TGACTGGATGTA, -0.202; in that of TGATAAACAGTA, -0.726.

For the sequence TGATAGCTTGTA, the binding signal (log2 normalized fluorescence) is -0.931. With TGACAGTAAGTA the figure was -0.0584. TGACTCTGAGTA: the binding signal (log2 normalized fluorescence) is -1.05. As for TAGGTCAGAGCC, the binding signal (log2 normalized fluorescence) is -1.32. Take TGAGATGGCGTA: the binding signal (log2 normalized fluorescence) was -0.529. Regarding TGAGGTACCGTA, the binding signal (log2 normalized fluorescence) is -0.177. On to TGAAAGCCTGTA, for which the binding signal (log2 normalized fluorescence) was -0.0129.

The sequence TGAAATGCGGTA returned a binding signal (log2 normalized fluorescence) of 0.988. With TGAACGGCAGTA the figure was -0.447; with TGAGGGACTGTA, -0.287; with TGAGTAAAGGTA, -0.964. For TGACCGACAGTA, the binding signal (log2 normalized fluorescence) is -0.69. As to TGACCGCTGGTA, the binding signal (log2 normalized fluorescence) was -0.203. With TGATATTGGGTA the figure was -1.18. On to TGAGTACCAGTA, for which the binding signal (log2 normalized fluorescence) was -0.705.

With TGAGAATGAGTA, the binding signal (log2 normalized fluorescence) is -0.499. In the case of TGAGCCCAGGTA it was -0.848. Regarding TGATTGTCTGTA, the binding signal (log2 normalized fluorescence) was -0.83. For the sequence AAGTTTAAGCCG, the binding signal (log2 normalized fluorescence) was -0.829. On to TGATGCGGCGTA, for which the binding signal (log2 normalized fluorescence) is -0.112. The sequence GTACACGTGGTC returned a binding signal (log2 normalized fluorescence) of 3.35. In the case of TGATAAACTGTA it was -0.922; in that of TGACTCGGGGTA, 0.137. With TGAGGTTGGGTA the figure was -0.698; with TGTCAGGTGCTA, 2.69. TGAGGCCTGGTA gave a binding signal (log2 normalized fluorescence) of 0.158.

Sequence TGAACCCGTGTA displayed a binding signal (log2 normalized fluorescence) of 1.7. For the sequence TGAGTGAACGTA, the binding signal (log2 normalized fluorescence) was -0.316. TTAAGCGTGGTA: the binding signal (log2 normalized fluorescence) was 3. Take TGATTAACAGTA: the binding signal (log2 normalized fluorescence) was -0.841. In the case of TGAGGATAAGTA it was -0.954; in that of TGAAAAATAGTA, -1.16; in that of TGATGGGCTGTA, 0.354. For TGAATATATGTA, the binding signal (log2 normalized fluorescence) is -0.974. With TGACGGTATGTA the figure was -0.0601; with TGACAGCTTGTA, -0.208. Regarding TGACCACGCGTA, the binding signal (log2 normalized fluorescence) is 2.94. As to GCTGGTAGCGCC, the binding signal (log2 normalized fluorescence) is -0.949.

On to TTGTACGTGGTA, for which the binding signal (log2 normalized fluorescence) came to 1.39. TGAAATAACGTA: the binding signal (log2 normalized fluorescence) is -0.543. On to TGAGTGCGAGTA, for which the binding signal (log2 normalized fluorescence) turned out to be 0.137.
